This note sets out measurements from PubChem BioAssay AID1508624 (National Center for Advancing Translational Sciences (NCATS), 2021).

Each structure is given as a SMILES string. Among all 48,000 compounds or so, about 120 (0.25%) were called active. About 4% were inconclusive and are not listed. The call rests on the fitted dose curve; in most records, active means well fitted activation curve with a large enough effect; inconclusive means small, poorly fitted or top-dose-only effect, or another doubt; inactive means no such curve, though single readings can be large or run the other way. The list shows a part of the results.

The assay is described as follows: Primary qHTS for Identification of Small Molecule Activators of Huntingtin-Antisense Promoter Activity. Further: nearly all actives have a fitted effect of over 55% in size. The settings on record: HEK293 HTT-AS promoter firefly luciferase reporter (activity 0% = vehicle and -100% = no light), 24 h; series mostly up to 57.5 µM; activity change, positive = activation: at the top concentration. Put shortly:
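HEK293 luciferase promoter-reporter cells (2,500/well) plated 24 h, then compounds added at up to 57.5 uM final for 24 h at 37 °C. Firefly luminescence by Dual-Glo, normalized to vehicle (0%) and zero RLU (-100%).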
(Quantitative high-throughput screening tests each substance at several concentrations.)
Regarding `CCOc1ccc(-c2cc3nc(C4CCN(C(=O)OC(C)(C)C)CC4)c(C(=O)Nc4cccc(C(F)(F)F)c4)cn3n2)cc1`, the “activity change, positive = activation” value was inactive: -11%. For the molecule `c1ccc2c(c1)CCc1ccccc1N2`, the “activity change, positive = activation” value is inactive: 11.5%. In the case of `Cc1cc2c(cc1S(=O)(=O)CCC(=O)N1CCN(c3ccccc3)CC1)OCC(=O)N2`, the “activity change, positive = activation” value is inactive: -20.6%. The figure for `CCS(=O)(=O)N1CC(=O)N(c2cc(Cl)ccc2C)C(C)(C(=O)NC2CCCCCC2)C1` (configuration not stated) is inactive: -8.41%; for `CCCCCOC(=O)CSc1nc2sc3c(c2c(=O)n1Cc1ccccc1)CC(C)(CC)OC3` (configuration not stated) it is inactive: -14.5%. `CN1C(=O)C[C@H](C(=O)N[C@@H](Cc2cnc[nH]2)C(=O)N2CCC[C@@H]2C(N)=O)NC1=O`: the “activity change, positive = activation” value is inactive: -7.73%.

Turning to `COc1ccc(-c2nc3scc(CCNS(=O)(=O)c4cccs4)n3n2)cc1`, the “activity change, positive = activation” value was inactive: -28.6%. For the molecule `COc1cccc(C(=O)NC2=NC(c3ccccc3F)CC(=O)N2)c1` (configuration not stated), the “activity change, positive = activation” value is inactive: -13.3%. The same measure for `COc1cc(Cl)c(NS(=O)(=O)c2cc3[nH]c(=O)c(=O)[nH]c3cc2C)c(OC)c1`: inactive: 1.69%; for `Cc1ccc(-n2c(=O)c3c4c(sc3n(CC(=O)C(C)(C)C)c2=O)CCCCC4)cc1C`: inactive: -16.5%. In the case of `CCc1ccc(-n2c(=O)c3sc4ccccc4c3n(CC(=O)NC3CCCC3)c2=O)cc1`, the “activity change, positive = activation” value was inactive: -2.14%. In the case of `COc1cc(OC)c(NC(=O)CCc2nc(C3=CCN(Cc4cccc(Cl)c4)CC3)no2)cc1Cl`, the “activity change, positive = activation” value was inactive: 16.4%.

As to `Nc1nc(N)c(S(=O)(=O)c2ccccc2)c(Nc2ccccc2)n1`, the “activity change, positive = activation” value was inactive: -18.7%.

As to `COc1cccc(C2C(=O)N(C3CCCCC3)CC(=O)N2CCc2ccc(OC)c(OC)c2)c1` (configuration not stated), the “activity change, positive = activation” value was inactive: -9.81%. The same measure for `CCc1ccc2c(c1)c(=O)c(S(=O)(=O)c1ccc(F)cc1)cn2CC(=O)Nc1ccccc1OC`: inactive: -18.3%; for `COc1ccc(-c2cc(C(=O)Oc3ccc(Br)cc3)c3ccccc3n2)cc1`: inactive: 16.5%. With `Cc1ccc(NC(=O)c2oc3ccccc3c2NC(=O)C2CCCCC2)cc1`, the “activity change, positive = activation” value is inactive: 3.9%. The figure for `CCOC(=O)C1CCN(C(=O)c2ccc(C)c(NC(=O)c3nsc4ccccc34)c2)CC1` is inactive: -12.5%. The same measure for `CCC(=O)N1c2ccc(S(=O)(=O)CCC(=O)NCc3ccc(OC)cc3)cc2CC1C` (configuration not stated): inactive: -24.7%; for `CCc1cccc(C)c1Nc1c(-c2cccs2)nc2ncccn12`: inactive: -17.6%. The figure for `O=S(=O)(Nc1ccc(OC(F)(F)F)cc1)c1ccc(N2CCCCS2(=O)=O)cc1` is inactive: -18.7%; for `Cc1cc(C)c(NC(=O)CCN2CCCCC2)c(C)c1` it is inactive: 0.128%. With `COc1ccc(NC(=O)COCc2cc(-c3ccco3)on2)cc1Cl`, the “activity change, positive = activation” value was inactive: -13.3%. For the molecule `O=C(Nc1ccc(F)c(F)c1)c1ccc(=O)n(Cc2ccc(F)cc2)c1`, the “activity change, positive = activation” value was inactive: -18%.

Consider `CC1=C(C(=O)Nc2cc(C)cc(C)c2)C2(CCCCC2)OC1=O`, for which the “activity change, positive = activation” value is inactive: -14.3%. The same measure for `CC(C)c1ccc(S(=O)(=O)NCc2nc3cccnc3n2Cc2ccc(F)cc2)cc1`: inactive: -25.5%; for `Cc1cccc2c1-c1sc(C(=O)NCc3ccccc3Cl)cc1CO2`: inactive: -14.4%. As for `CCC(=O)N1CCc2cc(Br)cc(S(=O)(=O)CCC(=O)NCc3ccccc3)c21`, the “activity change, positive = activation” value was inactive: 13%.

As for `COc1cccc(NC(=O)c2cc(CN3CCOCC3)on2)c1`, the “activity change, positive = activation” value is inactive: 29.2%. The figure for `COc1ccccc1CNC(=O)c1c2c(nc3ccccc13)C(=O)N(C1CCCCC1)C2` is inactive: -18.8%; for `CCCCCCCCCCCCCCCC[N+](C)(C)Cc1ccccc1` it is inactive: -27.9%; for `CSc1cccc(NC(=O)CN(C)S(=O)(=O)c2ccc3c(c2)n(C)c(=O)c(=O)n3C)c1` it is inactive: 2.74%. With `Cc1nn2c(=O)cc(COC(=O)c3ccc(C(C)(C)C)cc3)nc2s1`, the “activity change, positive = activation” value is inactive: -5.6%. As to `O=c1ccc2cc(S(=O)(=O)N3CCCC3)ccc2[nH]1`, the “activity change, positive = activation” value was inactive: -13.8%. Take `Fc1ccc(CNc2nc3c(-c4ccc(F)cc4)nnn3c3ccccc23)cc1`: the “activity change, positive = activation” value was inactive: -1.23%.

`Cc1ccc(NC(=O)NCCc2c(C)nn(C)c2C)c(Cl)c1`: the “activity change, positive = activation” value was inactive: 1.94%. For `COc1cc(C(=O)NCc2ccc3c(c2)CCN3C(=O)c2ccncc2)cc(OC)c1OC`, the “activity change, positive = activation” value was inactive: 17.1%. On to `COc1cccc(/C=C/c2nc(C#N)c(N(C)Cc3ccccc3)o2)c1`, for which the “activity change, positive = activation” value is inactive: -16.3%. The same measure for `COc1ccc(-c2noc(CSCC(=O)Nc3ccc(C)cc3Br)n2)cc1OC`: inactive: -22.1%.

For `COCCCNC(=O)CN1C(=O)c2c(c3ccccc3n2C)C1c1ccc(OC)cc1` (configuration not stated), the “activity change, positive = activation” value was inactive: -5.9%. With `CCCCSc1ncnc2c1sc1nc(N3CCOCC3)c3c(c12)CCCC3`, the “activity change, positive = activation” value is inactive: -14.9%. `CCOc1ccc(CNC(=O)COc2cc(=O)n(C)c3ccccc23)cc1`: the “activity change, positive = activation” value is inactive: -2.66%.

For `CC1=C(C(=O)Nc2ccc(C)cc2)C(c2ccccc2Cl)n2nnnc2N1` (configuration not stated), the “activity change, positive = activation” value is inactive: -8.79%. As for `Cc1ccc(Cn2c(C)c(CNC3CCCCC3)c(C(=O)O)c2C)cc1`, the “activity change, positive = activation” value was inactive: -14.2%. The same measure for `CCC(=O)N1CCc2cc(S(=O)(=O)NC(C(=O)NCc3ccc(OC)cc3)C(C)C)ccc21` (configuration not stated): inactive: 2.62%; for `COc1cccc(N2C(=O)CSC23C(=O)N(CC(=O)Nc2cc(C)ccc2C)c2ccccc23)c1` (configuration not stated): inactive: -9.81%.

In the case of `COc1ccc(OC)c(CCNC(=O)CCCc2nnc3n(C)c(=O)c4sccc4n23)c1`, the “activity change, positive = activation” value was inactive: 7.85%. The same measure for `COc1ccc(CCNc2nc3c(c(=O)n(C)c(=O)n3C)n2Cc2ccc(F)cc2)cc1OC`: inactive: -41%. For the molecule `CCOC(=O)c1cc2c(=O)n3ccccc3nc2n(Cc2ccco2)c1=NC(=O)c1cc(C)cc(C)c1`, the “activity change, positive = activation” value is inactive: -33.6%. With `COC(=O)c1ccc(NC(=O)c2nn(C)c3c2CS(=O)(=O)c2ccccc2-3)cc1`, the “activity change, positive = activation” value is inactive: -14.3%. Turning to `COc1ccc2[nH]cc(CCNC(=O)Nc3ccccc3C)c2c1`, the “activity change, positive = activation” value is inactive: -16.4%.

As for `Cc1cc(C)c(NC(=O)c2sc3nc(C)cc(C)c3c2N)c(C)c1`, the “activity change, positive = activation” value is inactive: -37.7%. Regarding `COc1ccc(C)cc1NC(=O)CN1CCN(CC(=O)Nc2ccccc2F)CC1`, the “activity change, positive = activation” value was inactive: 8.49%. Turning to `Cc1ccc2sc(N3CCN(C(=O)C4COc5ccccc5O4)CC3)nc2c1C` (configuration not stated), the “activity change, positive = activation” value is inactive: -19.4%. The same measure for `O=C(Nc1c(C(=O)N2CCN(c3ccc(F)cc3)CC2)oc2ccccc12)c1ccco1`: inactive: -17.1%; for `COc1ccc(CCNC(=O)c2ccc(CS(=O)(=O)c3ccc(C)cc3)o2)cc1OC`: inactive: -31.8%; for `COc1cccc(N2CCN(S(=O)(=O)c3ccc(-c4cnc(C5CC5)o4)cc3)CC2)c1`: inactive: -15.6%. Take `CCOC(=O)C1CCCN(CCC(=O)Nc2ccc(OC)cc2OC)C1` (configuration not stated): the “activity change, positive = activation” value is inactive: -13.1%.

Take `Cc1cccc(-n2ccnc2SCC(=O)Nc2ccccc2C(F)(F)F)c1`: the “activity change, positive = activation” value is inactive: -15.1%.

`O=C(CSc1nc2ccccc2n1Cc1ccc(F)c(Cl)c1)N1CCN(c2ccc(F)cc2)CC1`: the “activity change, positive = activation” value was inactive: -26.1%.

With `COc1ccc(CNC(=O)CCc2c(C)nc3c(c2C)c(=O)n(C)c(=O)n3C)cc1`, the “activity change, positive = activation” value is inactive: -6.08%. The figure for `CCn1cc(C(=O)NCCc2ccccc2)c(=O)c2cc(S(=O)(=O)N3CCOCC3)ccc21` is inactive: -12.8%.
